# Out of some 420,000 compounds screened, about 50,000 (12%) were called active. About 26% were inconclusive and are not listed. Calls come from the whole dose curve; as a rule, active = well fitted inhibition curve with a large enough effect; inconclusive = small, poorly fitted or top-dose-only effect; inactive = flat fitted curve, though single readings scatter. The entries are a selection whose mix differs from that of the whole data set.
# Assay: qHTS for Inhibitors of human tyrosyl-DNA phosphodiesterase 1 (TDP1): qHTS in cells in presence of CPT; note: nearly all actives have a fitted effect of over 55% in size
# Details: chicken DT40 Tdp1-/-;hTDP1 cells + 20 nM CPT, ATP luminescence, 48 h; series mostly up to 46.2 µM; activity change, negative = growth inhibition: at the top concentration
# Procedure, shortened: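 Chicken DT40 Tdp1-/- cells complemented with human TDP1, 400 cells/well, exposed to compounds plus 20 nM camptothecin for at least 48 h at 37 C; viability read as ATP content by CellTiter-Glo luminescence.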
# % is set by controls: 0 for no effect and ±100 for the full control effect; potency is the fitted concentration of half-maximal effect.
SMILES,"activity change, negative = growth inhibition",Potency
C=CCOC(=O)C1=C[C@H](c2ccc(C(F)(F)F)cc2)C[C@H](OCCCCO)O1,inactive: -20.3%,–
CCC(CC)C(=O)Nc1cccc(-c2nc3ccccc3s2)c1,–,active: 20.6 µM
Cc1ccc(/C=N/NC(=O)C(C)NC(=O)c2ccccc2)cc1 (centres undefined),inactive: 26.1%,–
Cc1ccc2c(c1)c1c3n2CCN(CC#N)C3CCC1 (centres undefined),inactive: 36.5%,–
C/C(=C\COc1cc(=O)[nH]c2ccccc12)CCC(O)C(C)(C)O (centres undefined),–,inactive
COc1ccc(-c2nnc(S/C(=C/c3ccc(Cl)cc3)C(=O)O)o2)cc1,inactive: 7.75%,–
C[C@@H]1CN([C@@H](C)CO)C(=O)CCCn2nncc2CO[C@@H]1CN(C)C(=O)Nc1ccc(N2CCN(C)CC2)cc1,inactive: 5.91%,–
CCCN(CC(=O)Nc1ccccc1C)C(=O)c1ccc(COc2ccccc2)cc1,–,active: 23.1 µM
Cc1ccc(NC(=O)/C(=C/c2cccc(Br)c2)NC(=O)c2ccco2)cc1,inactive: -5.05%,–
COCC(C)NCc1ccccc1C (centres undefined),inactive: 14.8%,–
Cc1ccc([C@H]2C[C@H](O)[C@@H](n3cc(C4CC4)nn3)CN2C(=O)c2cccs2)cc1,inactive: -21.1%,–
CCOC(=O)c1ccccc1Nc1cn(C(C)=O)c2ccccc12,–,active: 3.66 µM
CCOc1ccccc1C1c2[nH]c3ccccc3c2C[C@H]2C(=O)N(C3CCN(Cc4ccccc4)CC3)CC(=O)N12 (some centres undefined),–,active: 5.8 µM
O=[N+]([O-])c1ccccc1SNc1ccccn1,–,active: 20.6 µM
Oc1c(CN2CCCC(C(F)(F)F)C2)cc(Cl)c2ccccc12 (centres undefined),–,active: 18.4 µM
CCn1c(SCC(=O)NCc2ccco2)nnc1-c1ccc(N)cc1,inactive: 14.8%,–
C[C@H](CO)N1C[C@H](C)[C@@H](CN(C)C(=O)Nc2ccccc2)Oc2c(NC(=O)c3ccncc3)cccc2C1=O,inactive: 36.9%,–
CCN(CCCNC(=O)CNC(=O)Cn1cnc2ccccc2c1=O)c1ccccc1,inactive: 33.9%,–
COC(=O)c1ccccc1NC(=O)c1ccc(F)cc1,inactive: -29.6%,–
COc1cc(C(=O)COC(=O)c2ccc3c(c2)OCCO3)cc(OC)c1OC,–,active: 14.6 µM
CC1(C)OC2C(CO)OC(n3cnc4c(=O)[nH]cnc43)C2O1 (centres undefined),inactive: -6.51%,–
C[C@H](CO)N1C[C@H](C)[C@@H](CN(C)S(=O)(=O)c2ccccc2)OCc2cnnn2CCCC1=O,inactive: 3.43%,–
COc1ccc(NC(=O)CCN2C(=O)C3C4C=CC(C4)C3C2=O)cc1 (centres undefined),inactive: 10.6%,–
Cc1ccc(C2CC(=O)C=C(NCc3ccccc3)C2)cc1 (centres undefined),–,active: 5.17 µM
C[C@@H](N)C1CCC(C(=O)Nc2ccncc2)CC1 (some centres undefined),inactive: -11.6%,–

SMILES,"activity change, negative = growth inhibition",Potency
COc1ccc(CN2[C@@H](CC(=O)O)c3cc(C(F)(F)F)ccc3S2(=O)=O)cc1,inactive: -19.4%,–
COc1ccc(S(=O)(=O)c2c(O)c3ccc(C(=O)Nc4ccccc4Cl)cc3[nH]c2=O)cc1,inactive: 8.7%,–
Cc1[nH]nc(N=CC2=C(O)CC(c3ccco3)CC2=O)c1-c1ccccc1 (centres undefined),inactive: -2.32%,–
Cc1cc(C)cc(NC(=O)Cn2nnc(C(=O)NCc3ccco3)c2N)c1,inactive: 4.71%,–
Nc1nc2nonc2nc1N,inactive: 40.7%,–
O=c1[nH]c(C2CCCN(S(=O)(=O)c3ccccc3)C2)nc2c1nnn2Cc1ccc(OC(F)(F)F)cc1 (centres undefined),inactive: -5.71%,–
COc1ccc(NC(=S)Nc2ccccc2)cc1,inactive: -28%,–
COCCNc1nc(NCC2CCCCC2)c2sc(-c3ccccc3)cc2n1,–,active: 14.6 µM
Cc1c(NC(N)=O)c(=O)n(-c2ccccc2)n1C,inactive: 39.5%,–
CCCOc1ccc(N2C(=O)CC(NCc3ccc(S(N)(=O)=O)cc3)C2=O)cc1 (centres undefined),inactive: 40.1%,–
C/C(N)=C(/C#N)C(=O)CSc1nnc(Nc2cccc(C)c2)s1,inactive: -29.8%,–
O=C(Cn1c(=O)n(Cc2ccco2)c(=O)c2c3c(sc21)CCCCC3)c1ccccc1,–,active: 14.6 µM
O=C(NC1CCCC1)c1ccc2c(c1)N(Cc1ccc(C(F)(F)F)cc1)C(=O)c1ccccc1S2,–,active: 20.6 µM
COc1ccc(N(CC(=O)NCc2ccc(F)cc2)S(=O)(=O)c2c(C)noc2C)cc1,inactive: -21.1%,–
CC(OC(=O)C1=COCCO1)C(=O)NC1CCCCC1C (centres undefined),inactive: -6.46%,–
Cc1[nH]n(-c2ccccc2)c(=O)c1N=Nc1ccccc1O,–,active: 0.517 µM
COc1ccc2c(c1)c(CC(=O)N1CCOCC1)c(C)n2C(=O)c1ccc(Cl)cc1,inactive: 4.42% [at 4.12 µM],–
CCc1cc(S(N)(=O)=O)cc(CC)c1NC(C)=O,inactive: 38.7%,–
CN(C)S(=O)(=O)n1cc(/C=C(\NC(=O)c2ccccc2F)C(=O)NCCCn2ccnc2)c2ccccc21,inactive: -27.8%,–
CCN1C(=O)[C@H]2[C@@H](c3ccc(C(F)(F)F)cc3)N[C@]3(CCCN(Cc4ccc(Br)cc4)C3=O)[C@H]2C1=O,–,active: 13 µM
CCN1CCN(C(=O)NC(C(=O)NC2C(=O)N3C2SC(C)(C)C3C(=O)O)c2ccccc2)C(=O)C1=O (centres undefined),inactive: 6.71%,–
Cc1ccc(NC(=O)c2cc(C)nn2-c2ccccc2)cc1,inactive: -20.2%,–
NC[C@@H](O)c1ccc(O)c(O)c1,inactive: -24.8%,–
Clc1ccccc1-c1nc(-c2ccncc2)no1,–,inactive

# Reference: PubChem BioAssay AID686979 (National Center for Advancing Translational Sciences (NCATS), 2013)
